The values that follow come from PubChem BioAssay AID1745853 (National Center for Advancing Translational Sciences (NCATS), 2022).

Common to all, as to test: Primary Screen for Target Class Profiling of Small Molecule Inhibitors of Methyltransferases
Test [1] deals with Glycine N-methyltransferase (Homo sapiens) (UniProt Q14749). Conditions: purified enzyme, MTase-Glo SAH luminescence; measured here: GNMT inhibition; at 40 µM; stronger effect = lower value. Summed up: (§1)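 Each enzyme was reacted with SAM and its substrate, with compounds tested once at 40 uM; SAH formed was read by MTase-Glo luminescence.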
In test [2] the target is Guanidinoacetate N-methyltransferase (Homo sapiens) (UniProt Q14353). Conditions: purified enzyme, MTase-Glo SAH luminescence; measured here: GAMT inhibition; at 40 µM; stronger effect = lower value. Summed up: as §1
Test [3] has as its target Histamine N-methyltransferase (Homo sapiens) (UniProt P50135). Conditions: purified enzyme, MTase-Glo SAH luminescence; measured here: HNMT inhibition; at 40 µM; stronger effect = lower value. Summed up: as §1
Test [4] deals with Nicotinamide N-methyltransferase (Homo sapiens) (UniProt P40261). Conditions: purified enzyme, MTase-Glo SAH luminescence; measured here: NNMT inhibition; at 40 µM; stronger effect = lower value. In outline:
as §1

The target of test [5] is Phenylethanolamine N-methyltransferase (Homo sapiens) (UniProt P11086). Conditions: purified enzyme, MTase-Glo SAH luminescence; measured here: PNMT inhibition; at 40 µM; stronger effect = lower value. In outline:
as §1

The structures appear in SMILES notation. Values joined by “and” are separate entries in the source; they are usually repeats but may differ in a detail not shown here. Equal entries are not always repeated. This is one part of the list. Further columns of the screen follow, without active or inactive calls.
On the % scale 0 is the no-effect control and ±100 the full control effect.

In the case of `CCCC(CCC)C(=O)Nc1ccn([C@@H]2O[C@H](CO)[C@@H](O)C2(F)F)c(=O)n1`, the activity change, negative = inhibition in test [1] is -2.66%; in test [2], 1.89%; in test [3] it was 4.29%; in test [4], -12.4%; in test [5] it was -1.12%.

`Cn1cc([C@@H](NC(=O)CCc2ccc(=O)[nH]n2)C2CC(O)C2)cn1` (some centres not stated): the activity change, negative = inhibition in test [1] was -4.78%; in test [2], -9.59%; in test [3], -3.51%; in test [4] it was -6.78%; in test [5], -8.3%.

`CN(Cc1cnccn1)C(=O)C1CCCN(C2CCN(C(=O)C3CC3)CC2)C1` (configuration not stated): the activity change, negative = inhibition in test [1] was -1.72%; in test [2], -0.915%; in test [3] it was 1.82%; in test [4] it was 0.072%; in test [5] it was 2.15%.

On to `Cc1cccc(C(=O)N2CCC(N3CC4CC(C3)[C@H]3CCCC(=O)N3C4)CC2)c1` (some centres not stated), for which the activity change, negative = inhibition in test [1] is -9.22%; in test [2] it was -2.97%; in test [3] it was -3.79%; in test [4] it was -13.5%; in test [5], -0.243%.

As to `CCc1nc2c(c(-c3ccc(Cl)cc3)n1)CN([S+](C)(=O)[O-])CC2`, the activity change, negative = inhibition in test [1] was -10%; in test [2] it was -4.72%; in test [3], -2.28%; in test [4], -12.3%; in test [5], -8.02%.

For `O=C(Nc1ccccc1-c1cn2c(CN3CCNCC3)csc2n1)c1cnc2ccccc2n1`, the activity change, negative = inhibition in test [1] is -57.2% and -2.52%; in test [2] it was -23.1%; in test [3] it was -67.5% and 0.818%; in test [4], -41.7% and -32%; in test [5], -44.8%.

For `Cc1nc(C(=O)N2CCn3nc(Cc4ccccc4)cc3C2)cs1`, the activity change, negative = inhibition in test [1] was -6.52%; in test [2] it was -8.88%; in test [3], -3.97%; in test [4], -12.1%; in test [5], -8.97%.

As to `CCOC(=O)c1cc2n(n1)CC(C)(C(=O)NC1CCCC1)N(c1ccccc1F)C2=O` (configuration not stated), the activity change, negative = inhibition amounted to 4.97% in test [1]; 0% in test [2]; 4.12% in test [3]; 2.42% in test [4]; 4.31% in test [5].

For the compound `NC(=O)Nc1cc(-c2cccc(F)c2)sc1C(=O)NC1CCCNC1` (configuration not stated), the activity change, negative = inhibition is -1.12% in test [1] and -17% in test [3].

In the case of `O=C(NCc1ccc(Cl)cc1)c1ccc2c(=O)nc3c(-c4ccccc4F)n[nH]n3c2c1`, the activity change, negative = inhibition in test [1] was -34.1%; in test [2] it was 1.64%; in test [3], -3.11%; in test [4], -3.15%; in test [5] it was -2.44%.

Consider `O=C(c1ccccn1)N1CCN(C(=O)N2CC3CC(C2)[C@H]2CCCC(=O)N2C3)CC1` (some centres not stated), for which the activity change, negative = inhibition is 2.62% in test [1]; -3.53% in test [2]; 2.8% in test [3]; 1.52% in test [4]; -0.393% in test [5].

On to `COc1ccc2c(c1OC)C(=O)O[C@@H]2[C@H]1c2c(cc3c(c2OC)OCO3)CCN1C`, for which the activity change, negative = inhibition was -0.749% in test [1]; 11.9% in test [2]; 3.55% in test [3]; -6.63% in test [4]; 6.42% in test [5].

Regarding `O=C(Cn1nc2nc(Nc3ccc(F)cc3)ccn2c1=O)Nc1ccc2c(c1)OCO2`, the activity change, negative = inhibition in test [1] was 2.6%; in test [2] it was -2.35%; in test [3] it was 14%; in test [4], -8.05%; in test [5], 1.5%.

For the compound `CC(C)c1ccc(NC(=O)c2cc3n(n2)CC(C)(C(=O)NC2CCCCC2)N(C)C3=O)cc1` (configuration not stated), the activity change, negative = inhibition is -0.256% in test [1]; 0.695% in test [2]; 0.562% in test [3]; -4.77% in test [4]; -1.94% in test [5].

Take `COc1cc(C2Oc3c(OC)cc(/C=C/C(=O)OC[C@H]4O[C@@H](OC(C)(C)C(=O)O)[C@H](O)[C@@H](O)[C@@H]4O)cc3C2CO)ccc1O` (some centres not stated): the activity change, negative = inhibition in test [1] is -1.15%; in test [2] it was 5.72%; in test [3] it was 1.95%; in test [4], -7.57%; in test [5] it was 3.96%.

Regarding `Cc1ccc(Cc2nc(CCNS(=O)(=O)c3cc(C)c(C)cc3C)n[nH]2)cc1`, the activity change, negative = inhibition in test [1] is -9.38%; in test [2], -4.02%; in test [3] it was -11.4%; in test [4], -12.3%; in test [5], -9.83%.

`CCOc1ccc(-c2cc3n(n2)CC(C)(C(=O)NC2CCCCC2)N(CCCOC(C)C)C3=O)cc1` (configuration not stated): the activity change, negative = inhibition was -0.606% in test [1]; 0% in test [2]; 2.67% in test [3]; 1.37% in test [4]; 0.848% in test [5].

For `O=C(Nc1ccc(F)cc1)c1ccn2cncc2c1`, the activity change, negative = inhibition in test [1] was -5.91%; in test [2] it was -4.06%; in test [3], -1.82%; in test [4], -6.07%; in test [5], -10.4%.

On to `Cc1ccc(C(=O)Nc2cccc(C(F)(F)F)c2)cc1-c1ccc2nc(NCCN3CCOCC3)ncc2c1`, for which the activity change, negative = inhibition is 1.67% in test [1]; 5.86% in test [2]; -11.1% in test [3]; 3.11% in test [4]; 11.1% in test [5].

Regarding `CN1CCN(C2CCC(n3cc(-c4ccc(Oc5ccccc5)cc4)c4c(N)ncnc43)CC2)CC1` (configuration not stated), the activity change, negative = inhibition in test [1] is -8.98%; in test [2] it was 6.72%; in test [3], -8.05%; in test [4], -24.9%; in test [5] it was -66.9%.

On to `Cc1ccc(S(=O)(=O)NCCN2CCN(S(=O)(=O)c3ccc(C)cc3)CC2)cc1`, for which the activity change, negative = inhibition in test [1] is -1.85%; in test [2] it was 0%; in test [3] it was 7.26%; in test [4], 3.83%; in test [5] it was 1.2%.

Take `CC(C)CCN1C(=O)CSc2c(c3ccccc3n2C)C1C(=O)NCc1ccccc1` (configuration not stated): the activity change, negative = inhibition was found to be 11.2% in test [1]; 0% in test [2]; 5.96% in test [3]; 6.7% in test [4]; 7.79% in test [5].

Consider `CCCc1cc(C(=O)N[C@@H]2CCOC[C@H]2OCCO)n(C)n1`, for which the activity change, negative = inhibition in test [1] is -2.08%; in test [2], -0.523%; in test [3], -0.471%; in test [4], -0.325%; in test [5], -3.42%.

As to `CC1(C(=O)NC2CCCCC2)Cn2nc(-c3ccco3)cc2C(=O)N1CCc1ccccc1` (configuration not stated), the activity change, negative = inhibition was -4.97% in test [1]; -15.2% in test [2]; 6.68% in test [3]; -6.18% in test [4]; -5.07% in test [5].

Regarding `CN(Cc1ccc2nccnc2c1)C(=O)c1cc(COc2ccc(F)cc2F)on1`, the activity change, negative = inhibition was -9.44% in test [1]; -8.92% in test [2]; -3.12% in test [3]; -35.5% in test [4]; 5.79% in test [5].

Consider `C=CCC1(CO)CCCN(Cc2nc(C)cc(-c3ccccc3)n2)C1` (configuration not stated), for which the activity change, negative = inhibition in test [1] was -36.4%; in test [2], -1.5%; in test [3], -2.15%; in test [4], -8.27%; in test [5] it was -3.21%.

`CCN(CC)c1nc2c(-c3ccc(C)cc3)nnn2c2ccccc12`: the activity change, negative = inhibition in test [1] was -8.57%; in test [2], 1.21%; in test [3], -4.49%; in test [4] it was -4.85%; in test [5], -15.1%.

As to `COc1ccccc1CNC(=O)C1(C)Cn2c(cc3ccccc32)C(=O)N1Cc1cccc(Br)c1` (configuration not stated), the activity change, negative = inhibition was -6.82% in test [1]; 2.33% in test [2]; -0.413% in test [3]; -6.23% in test [4]; -3.48% in test [5].

As for `O=C(NCc1ccco1)C1COC2(CCN(C(=O)c3ccc(F)cc3)CC2)N1C(=O)c1ccco1` (configuration not stated), the activity change, negative = inhibition was -5.05% in test [1]; -2.93% in test [2]; 0.462% in test [3]; -2.94% in test [4]; 0.634% in test [5].

Regarding `CN(C)c1ccc(C(=O)N[C@H]2C[C@@H](c3nc(-c4ccc5ccccc5c4)no3)N(C)C2)cc1`, the activity change, negative = inhibition is -10.7% in test [1]; -5.96% in test [2]; -10% in test [3]; -15.8% in test [4]; 5.75% in test [5].
